Assay results from PubChem BioAssay (NCI).
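Tested at 5 concentrations; 48 h exposure; 96-well plates; endpoints linearly interpolated, else capped at highest concentration. The concentration for 50% growth inhibition is given as GI50. TGI marks complete inhibition of growth.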 The source made the active and inactive calls. Rule as the data show it: active = GI50 below about 0.43 µM; inactive = the rest.

System: NCI-H322M lung
Assay: NCI anticancer screen, dose series, 48 h

Structure (SMILES)	TGI [µM]	GI50 [µM]	outcome
O=C1C2CC=CCC2C(=O)N1n1c(Cc2ccc(Cl)cc2)n[nH]c1=O (stereo not drawn)	> 100	–	–
N=C1/C(=C/c2ccc(F)cc2)C(=O)N=C2SC=NN12	> 100	–	–
COCC1OC(Sc2ccccc2)C(O)C(OC)C1OC (stereo not drawn)	> 100	–	–
CC(C)(Cl)C(Br)CCC(C)(Cl)C(Br)CBr (stereo not drawn)	> 100	–	–
C=CCCCCC/C=C\[C@H](O)C#CC#C/C=C/CO	> 100	43.2	–
O=c1[nH]c2c(nc1NC13CC4CC(CC(C4)C1)C3)c(=O)oc1ccccc12	> 100	–	–
CC(C)CCN1c2nc(Nc3cc(F)c(O)c(F)c3)ncc2N(C)C(=O)C1C (stereo not drawn)	54.7	7.39	–
FC(F)(F)c1ccc(N=C/C=C(/Nc2ccc(C(F)(F)F)cc2)c2ccc(Cl)cc2)cc1	33.4	–	–
C=C(CCC/C(C)=C/C=C/[C@]1(C)CCCc2ccoc21)CC(=O)O	> 100	–	–
COc1cc(C#CC(=O)OC/C=C/c2ccc3c(c2)OCO3)cc(OC)c1OC	> 100	–	–
O=C(Nc1ccc(Cl)cc1F)c1ccccc1O	> 100	2.66	–
CC(C)CC1C(=O)NCCC(NC(=O)C(Cc2ccc(OC(C)(C)C)cc2)NC(=O)OC(C)(C)C)C(=O)NC(Cc2ccccc2)C(=O)NC(Cc2ccccc2)NC1=O (stereo not drawn)	26.8	–	–
CCCCCCNC(=O)c1cc(NCc2cc(O)ccc2O)ccc1O	> 100	25.6	–
CC(C)N(C(=O)C12C3C4C5(C#N)C3C1(C#N)C5C42I)C(C)C (stereo not drawn)	> 100	–	–
Cc1cc([N+](=O)[O-])ccc1Nc1cccc(Cl)c1C	37.1	–	–
COc1ccc(C(=O)C(c2ccc(OC)cc2)C2(O)C(=O)Nc3ccc([N+](=O)[O-])cc32)cc1 (stereo not drawn)	> 100	–	–
CC1(c2cccs2)CC(c2cccs2)=C(C#N)C(=C(C#N)C#N)N1 (stereo not drawn)	30.4	–	–
COC(=O)C1=C(O)c2cc(OC)c(OC)cc2C(c2ccc(OC)c(OC)c2)C1 (stereo not drawn)	> 100	–	–
Cc1cc(C)n2nc3nc(N)c(C#N)c(-c4ccccc4)c3c2n1	> 100	–	–
CC(C)c1ccc2c(c1)CC[C@@H]1[C@@](C)(C(=O)O)CCC[C@]21C	23.1	10.4	–
OC1(C(F)(F)F)OCCN=C1C(F)(F)F (stereo not drawn)	> 100	–	–
CN(C(=O)C1=CCC2(CC1)OCCO2)c1ccccc1OS(=O)(=O)C(F)(F)F	> 100	–	–
CC(C)(C)OC(=O)N1CCc2[nH][nH]c(=O)c2C1	> 100	–	–
CCCCC(C(=O)C(=O)NC1C2CC3CC(C2)CC1C3)C(=O)C(C)C (stereo not drawn)	> 100	–	–
O=C(/C=C/c1ccccc1O)c1ccccc1O	> 100	–	–

Structure (SMILES)	TGI [µM]	GI50 [µM]	outcome
CC(=O)c1cccc(NC(=O)C(=O)NNc2n[nH]c(=S)n2N)c1	26.6	–	–
C=C1C(=O)O[C@@H]2C[C@@H]1CC/C(C)=C/CC/C(C)=C/CC[C@@]2(C)O	32.5	12.7	–
O=C1NC(NNc2ccccc2)=N/C1=C\c1ccccc1O	> 100	–	–
O=C(O)CC1NC(/C(=C/c2ccccc2)NC(=O)c2ccccc2)OC1=O (stereo not drawn)	> 100	–	–
CCCCCCCCCCCCOC1C(C(COC2OC(C3COC(C)(C)O3)C3OC(C)(C)OC23)NC(=O)Nc2ccc(C(=O)O)cc2)OC2OC(C)(C)OC21 (stereo not drawn)	5.3	2.6	–
O=c1[nH]c(=O)n(C2OC(CO)C(O)C2O)cc1NN=NCc1ccccc1 (stereo not drawn)	> 100	–	–
COC(=O)CCC1=CCC2(SC)C(=O)Nc3cccc1c32 (stereo not drawn)	> 100	–	–
O=c1cnn(C2OC(C(O)CO)C(O)C2O)c(=O)[nH]1 (stereo not drawn)	> 100	–	–
COc1cc2nc(-c3ccc(Cl)cc3)cc(OCCCN3CCCCC3)c2cc1OC	> 100	4.42	–
O=C(CNc1ccc(Cl)cc1)Nc1ccc(-c2nc3ccccc3s2)cc1	11.7	5.37	–
CN(C)CCCNC(=O)c1cc2[nH]c3c(cnc4ccc([N+](=O)[O-])cc43)c(=O)c2n1C	33.1	15.7	–
Cc1cc(C)nc(NC(=O)c2ccc(Br)s2)c1	> 100	–	–
Cc1cc(N)c(C)c2c1[nH]c1ccc(O)cc12	> 100	–	–
CCOC(=O)c1c(-c2ccc(OC)cc2)c(C#N)c(=S)n(C2OC(COC(C)=O)C(OC(C)=O)C(OC(C)=O)C2OC(C)=O)c1-c1ccccc1 (stereo not drawn)	> 100	–	–
CC(=O)Nc1ccc(C(=O)NN2C(=O)CSC2c2ccc([N+](=O)[O-])cc2)cc1 (stereo not drawn)	> 100	–	–
COc1ccc(C2C(Cl)C(=O)N2n2cnc3ccccc3c2=O)cc1 (stereo not drawn)	> 100	–	–
CNc1ccc(C(=O)CC(O)CCC(C)C2OC(=O)CC(O)CC(=O)CC(O)CC(O)CC(O)CC(O)CC3(O)CC(O)C(C(=O)NCCN(C)C)C(CC(OC4OC(C)C(O)C(NC(=O)CN5CCN(C)CC5)C4O)/C=C/C=C/C=C/C=C\C=C/C=C/C=C/C2C)O3)cc1 (stereo not drawn)	> 100	–	–
COc1cc(C2CC(c3cccc(Br)c3)=NN2C(C)=O)cc(OC)c1OC (stereo not drawn)	> 100	0.563	–
O=C(NC(Cc1c[nH]c2ccccc12)C(=O)Nc1ccc(Br)cc1)OCc1ccccc1 (stereo not drawn)	44.9	–	–
CCCCCCCCCC1(N=[N+]=[N-])C(=O)c2ccccc2N(C)C1=O (stereo not drawn)	> 100	–	–
OCCCCCCCCCCCOc1ccc(C2OCC3(CO2)COC(c2ccc(OCCCCCCCCCCCO)cc2)OC3)cc1 (stereo not drawn)	> 50	–	–
CCN1CCN(C(c2ccc(C(F)(F)F)cc2)c2ccc3cccnc3c2O)CC1 (stereo not drawn)	22.9	0.602	–
NC(=O)NC1C(c2ccccc2)=C1c1ccccc1	49.7	–	–
O=C1NC(=O)C(c2c[nH]c3ccccc23)=C1c1cnc[nH]1	> 100	–	–
C/C(=N\NC(=S)N1CCCCC1)c1nc2ncccc2[nH]1	> 100	–	–

Structure (SMILES)	TGI [µM]	GI50 [µM]	outcome
Cc1ccc(Cc2c(=O)[nH]nc3ccccc23)cc1	> 100	–	–
CN(CC(=O)O)c1ncc2c(n1)-c1ccccc1SC2	> 100	–	–
CCN(CC)CCOc1ccc(-c2nc3cc(Cl)ccc3s2)cc1	3.28	1.62	–
COc1ccccc1/C(=N\OCCC(=O)O)c1cccs1	> 100	–	–
C=C(CNCc1ccccc1)c1ccc(C(=O)Nc2ccccc2N)cc1	56	7.12	–
[Cl][Hg][c]1cc(Br)cc(Br)c1	11.5	3.04	–
CCCCC1=NNC(=O)C1	> 100	–	–
O=C1/C(=C/c2ccc(Br)cc2)COc2ccc(O)c(O)c21	3.11	1.5	–
CCC[CH2][Sn]1([CH2]CCC)[O]N=C(c2ccccc2)C(c2ccccc2)[O]1 (stereo not drawn)	19.6	6.84	–
Cc1ccc(NC(=O)C(=O)C(C(=O)c2ccc3ccccc3c2)C2OC(=O)c3ccccc32)cc1C (stereo not drawn)	55.1	–	–
O=C1C(Cl)N(c2ccc(Cl)cc2)C1c1c[nH]c2ccccc12 (stereo not drawn)	30.3	–	–
O=c1cc(N2CCOCC2)[nH]c(=O)n1-c1ccc(F)cc1	> 100	–	–
CCn1c(-c2nonc2N)nc2c(C#CC(C)(C)O)nc(OC[C@H](N)c3ccccc3)cc21	12.5	5.1	–
O=C(O)c1ccc(N=C(C(=Nc2ccc(C(=O)O)cc2)c2ccccc2)c2ccccc2)cc1	> 100	–	–
CCN(CC)c1ccc2c(c1)OC(N)=C(C#N)C2c1cc(OC)c2c(c1)OCO2 (stereo not drawn)	> 69.9	0.546	–
S=C1NC2(CCCCCC2)NN1c1ccccc1	> 100	–	–
CN(C)/C=N/c1nc2c(ncn2C2OC(CO)C(O)C2O)c(=O)[nH]1 (stereo not drawn)	> 100	–	–
O=[N+]([O-])C(=C(Cl)Cl)/C(Cl)=C(\Cl)Br	–	–	inactive
O=c1c2sc(=S)n(-c3ccc(F)cc3)c2ncn1Cc1ccc(F)cc1F	> 100	> 100	–
O=C(CCn1[nH]c(=O)c(Cl)c(Cl)c1=O)NO	> 100	–	–
CCCN=C(N)NC#N	> 100	–	–
N#Cc1c(-c2ccc(Cl)cc2)c2c([nH]c1=O)-c1ccccc1SC2	> 100	–	–
O=C(C=P(c1ccccc1)(c1ccccc1)c1ccccc1)c1ccc(-c2cccc([N+](=O)[O-])c2)s1	> 100	–	–
